Over roughly 33,000 sequences, “E-score (-0.5 to 0.5)” has its median near -0.054; the highest 2% begin near 0.35. This is one part of the list.
biological target: T1, Stb5 (UniProt P38699); experiment: PBM E-score (8-mer binding enrichment) (E-score (-0.5 to 0.5)); higher = stronger / more preferred TF binding; most listed sequences are background and not binding sites; conditions: protein concentration: 200 nM; construct: GST-full length
T1 sequence: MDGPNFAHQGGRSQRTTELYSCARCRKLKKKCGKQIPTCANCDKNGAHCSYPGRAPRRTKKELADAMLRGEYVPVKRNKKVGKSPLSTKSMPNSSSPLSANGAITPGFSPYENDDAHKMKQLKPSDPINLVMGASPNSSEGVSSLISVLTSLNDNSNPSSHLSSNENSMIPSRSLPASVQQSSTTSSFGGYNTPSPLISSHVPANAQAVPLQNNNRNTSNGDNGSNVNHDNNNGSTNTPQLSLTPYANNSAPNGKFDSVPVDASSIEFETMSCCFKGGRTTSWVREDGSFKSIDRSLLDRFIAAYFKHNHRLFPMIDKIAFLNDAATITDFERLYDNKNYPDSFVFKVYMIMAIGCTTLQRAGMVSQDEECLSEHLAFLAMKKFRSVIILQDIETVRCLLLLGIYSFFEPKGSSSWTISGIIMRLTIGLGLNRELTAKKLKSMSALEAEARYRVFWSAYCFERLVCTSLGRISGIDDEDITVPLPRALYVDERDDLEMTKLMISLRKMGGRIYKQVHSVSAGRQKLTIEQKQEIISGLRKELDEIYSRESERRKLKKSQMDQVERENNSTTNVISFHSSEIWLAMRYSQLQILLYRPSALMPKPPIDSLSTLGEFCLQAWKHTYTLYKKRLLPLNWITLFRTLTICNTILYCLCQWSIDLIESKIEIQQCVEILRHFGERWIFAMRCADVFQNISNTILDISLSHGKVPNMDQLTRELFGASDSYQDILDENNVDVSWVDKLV
Outline: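 Yeast transcription factors carrying a GST tag, as full-length proteins or DNA-binding domains, were produced by PURExpress in vitro transcription/translation. About 100-200 nM protein was applied to universal all-10-mer Agilent arrays, double-stranded by primer extension on fresh or once-stripped slides. Bound protein was detected with fluorescent anti-GST, and scans were normalised with masliner. The Universal PBM Analysis Suite gave each ungapped eight-base word, pooled with its reverse complement, an E-score, a modified Wilcoxon-Mann-Whitney statistic.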

| Sequence | PBM E-score |
| --- | --- |
| CTGGACAC | -0.213 |
| AACATTCT | -0.214 |
| AGCAACTG | -0.144 |
| ACTAAAAT | -0.0486 |
| TCGGACGA | 0.0643 |
| CTATTCCA | 0.0398 |
| AAGCACGT | -0.252 |
| CGGTCATA | 0.448 |
| ATTTGGAC | -0.0228 |
| GCTACTAC | 0.165 |
| TAGCAAGA | -0.0573 |
| GCAATCAA | -0.1 |
| ATTACCCC | 0.362 |
| CCGCGACA | 0.201 |
| CTAAATAA | 0.163 |
| GGTGAGGA | 0.0241 |
| TACAATGA | -0.0637 |
| TGAAGTAA | -0.142 |
| AAAAGATC | -0.212 |
| AGCGCCAC | 0.162 |
| ATCAGGAG | -0.105 |
| GAGCTCCC | -0.168 |
| ACTTAACC | -0.0144 |
| CGGCGACC | 0.188 |
| AGCTTCAC | -0.235 |

| Sequence | PBM E-score |
| --- | --- |
| CTTATTCC | 0.197 |
| TACCTGGA | -0.174 |
| ATACAGAC | -0.062 |
| ATAGAGAC | -0.165 |
| GAGATAAC | 0.181 |
| GTAGATCA | -0.062 |
| CGAGTAGC | 0.0129 |
| GTAAGTAA | -0.0169 |
| AGCCTAAA | -0.149 |
| ATCAGGTA | 0.00741 |
| CCCTGTCG | -0.0966 |
| ATAGTGAG | -0.158 |
| AAGTGGAC | -0.13 |
| CACATGCA | -0.208 |
| AAGGGGAC | -0.0413 |
| ACATGCGC | -0.0638 |
| AATAAATT | 0.0482 |
| TGCTATAA | 0.0448 |
| GTAATCTA | -0.0418 |
| CACCATGG | -0.183 |
| ACGCGCTC | -0.136 |
| ATCTACAA | -0.0956 |
| ATGAAAAA | 0.00524 |
| AAGGACGC | -0.183 |
| AGTTTCAG | -0.0163 |

| Sequence | PBM E-score |
| --- | --- |
| ACCGGTCT | 0.31 |
| ACGGCTAC | -0.0612 |
| CCGGACCC | 0.29 |
| CAGTTAAG | 0.0137 |
| AAGAGTAG | 0.0093 |
| ACATTCGC | 0.0612 |
| AAGCGCGT | 0.084 |
| TGAGGAAA | -0.0514 |
| CGTGAAGC | -0.0144 |
| ACCAACGT | -0.12 |
| AAGTGGGT | -0.0391 |
| ACAAACGG | 0.292 |
| AGAGCTCC | -0.0376 |
| GTAGGCTA | -0.198 |
| ATACAACA | -0.22 |
| ATCGGCAG | 0.219 |
| ACTCACTA | -0.243 |
| GGCCCCTA | 0.0521 |
| CTTTAGCC | 0.00711 |
| CTGTGAAC | -0.043 |
| CGTTCGTC | 0.0524 |
| CATCGTGA | -0.0873 |
| ATAGTGGA | -0.0424 |
| GAGATGCC | 0.033 |
| ATCAATAC | -0.143 |

| Sequence | PBM E-score |
| --- | --- |
| GACAACGA | -0.0758 |
| TAGGTCGA | -0.0972 |
| CCCTTATC | -0.0693 |
| AGAGGACT | -0.236 |
| AGGTTTAC | -0.199 |
| CTCCCCTC | -0.17 |
| CACGACAA | -0.115 |
| AAGTACAA | -0.0817 |
| ATCCGATA | 0.22 |
| GGGTATCA | -0.079 |
| CTGAGAAA | -0.115 |
| CTCTTTTC | -0.0815 |
| CTCCCGGA | 0.188 |
| AAGATGCG | -0.0714 |
| AACACGAA | -0.0676 |
| GACGTGTA | -0.123 |
| GAAGGCTA | -0.125 |
| CTATGAAC | -0.0678 |
| AACACCAC | 0.113 |
| GCTGAAAA | -0.15 |
| CGGATCCA | 0.267 |
| AGTAGTCA | -0.146 |
| ATCAGCAA | -0.0974 |
| AAAGACCC | 0.0704 |
| ATGCTTGA | -0.155 |

| Sequence | PBM E-score |
| --- | --- |
| TCGATCCA | -0.198 |
| ATGCGCGA | 0.0413 |
| ACTGGAGA | -0.164 |
| ATCACAAG | -0.139 |
| AACTCTTA | -0.0636 |
| GGCCCGAC | 0.358 |
| GACATCGA | -0.081 |
| ATGTATTA | -0.0988 |
| ATCGAGGA | -0.264 |
| CGCACCGC | 0.352 |
| ACACTCAA | -0.254 |
| AAGCTACC | -0.101 |
| TACTCGCA | -0.136 |
| GTTACGGA | 0.125 |
| AATGCCAA | -0.237 |
| ACCTGCCC | 0.0486 |
| AACGGTCC | 0.254 |
| AAACAAGC | -0.0111 |
| AGCACCTG | -0.14 |
| GCTATACC | 0.179 |
| CGCTCACC | -0.0684 |
| ACATTCAA | -0.022 |
| AGGCATAC | -0.223 |
| AATAACCT | -0.215 |
| GAGTGTCC | 0.0712 |

| Sequence | PBM E-score |
| --- | --- |
| GAGGTGAC | -0.092 |
| CCATCATA | -0.19 |
| AGCTTACC | -0.0132 |
| AATGGCCC | 0.0152 |
| ACGTCACG | -0.12 |
| CGGAATGC | 0.0722 |
| GAGACAAC | -0.1 |
| AAAGCAGT | -0.307 |
| AACGAGGG | -0.19 |
| CTTATCTC | -0.0986 |
| CAGACCTG | -0.288 |
| AGGTTAAT | -0.1 |
| ACTCAGAA | -0.0804 |
| CCGGGACA | 0.246 |
| GCTGTACC | 0.0959 |
| AAGGTGCG | 0.166 |
| AGGATTAG | -0.2 |
| CGCACGCC | -0.0263 |
| ATTTGTTC | 0.0488 |
| ACTCTCTG | -0.163 |
| GGTCGTAA | 0.255 |
| GACTTTGC | 0.0127 |
| AAAACATA | -0.0479 |
| AGTATCTC | 0.121 |
| AATACGTG | -0.0843 |

| Sequence | PBM E-score |
| --- | --- |
| GACGGATC | 0.162 |
| ATTGATTG | -0.117 |
| ATAAATTG | 0.0566 |
| GCTTTAAC | -0.0801 |
| CTAGGATA | 0.0118 |
| ACGCTATG | -0.0654 |
| CCATTCCC | -0.128 |
| CGTGAACG | 0.00374 |
| AAAACGTA | -0.168 |
| CGTTCACC | 0.118 |
| TAACCGTA | 0.0605 |
| GGACCCAA | 0.117 |
| GCTATTCA | 0.0761 |
| ATCCAGGG | -0.0739 |
| AGTCCGGG | 0.274 |
| CTGCCTAC | -0.13 |
| CGTCGCCA | -0.259 |
| GCCAGCTA | -0.2 |
| CGGGTGAA | 0.129 |
| GGCCGGAC | 0.331 |
| CCCGCGCG | 0.342 |
| GAGAGAAA | -0.148 |
